Assay results from PMC11540904.

How the values were obtained:
[1] = target: 2dV-Camuiα (rat) (UniProt P11275); assay: fluorescence correlation spectroscopy (FCS); 2-photon TCSPC FCS at 23 °C on HEK293FT cell lysates (M-PER, 5 mM EDTA) diluted 2 to 15-fold in PBS with protease inhibitor; diffusion coefficients from curve fitting, given for plasmid ratio = 1
[2] = target: 2dV-Camuiα (rat) (UniProt P11275); assay: SEC; fluorescence-coupled SEC (FSEC): supernatant of sonicated transfected HEK293S GnTI- cells loaded directly onto Superose-6 in TBS (20 mM Tris-HCl pH 8.0, 200 mM NaCl), 0.4 ml/min; EGFP fluorescence 475/507 nm; approximate oligomeric state from retention time

2dV-Camuiα (a stretch of the chain, no sequence given) (enzyme; other documents disagree on this pair)
diffusion coefficient [1]: 11 μm^2/s | stoichiometry N [2]: 12
